Percent labeling data for 23 compounds are collected here from PubChem BioAssay AID2202238 (Ras Initiative Chemistry Research Team, Frederick National …, 2025).

The target in the assay is GTPase KRas (Homo sapiens) (UniProt P01116). The assay can be described thus: Covalent labelling of cysteine mutants by fragments, read by mass spectrometry (AID 2202238). Also on record: protein at 5 µM with 500 µM competing thiol for 1.5 h. Conditions: KRAS G12D cysteine mutants, disulfide tethering, MALDI-TOF labeling, stronger effect = higher value, fragment at 500 µM.
Sequence of UniProt P01116 (P01116 whole entry, looked up, the tested form may be a part): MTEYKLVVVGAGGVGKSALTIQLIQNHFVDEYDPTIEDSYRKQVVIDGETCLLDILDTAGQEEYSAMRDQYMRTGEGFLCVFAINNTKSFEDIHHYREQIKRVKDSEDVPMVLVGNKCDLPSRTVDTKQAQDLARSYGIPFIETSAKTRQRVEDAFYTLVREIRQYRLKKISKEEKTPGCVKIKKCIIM
Where [1] appears, read: measured here: G75C mutant labeling.
The mark [2] stands for this setting: measured here: H94C mutant labeling.
Setting [3] is: measured here: I36C mutant labeling.
Where [4] appears, read: measured here: L120C mutant labeling.
Setting [5] is: measured here: M67C mutant labeling.
[6] abbreviates: measured here: M72C mutant labeling.
Where [7] appears, read: measured here: N86C mutant labeling.
The mark [8] stands for this setting: measured here: P121C mutant labeling.
Setting [9] is: measured here: S122C mutant labeling.
Setting [10] is: measured here: S136C mutant labeling.
Where [11] appears, read: measured here: G60C mutant labeling.
[12] abbreviates: measured here: N26C mutant labeling.

This is one part of the list. Shown are side measurements of this screen, not its main read-out; they come without a call.

For the compound `O=C(NCCS)C1CN(C(c2ccccc2)c2ccccc2)C1`, the percent labeling was determined as 6.6% under setting [1]; 17.6% under setting [2]; 15.4% under setting [3]; 11.4% under setting [4]; 26.9% under setting [5]; 16.5% under setting [6]. For the same compound, the percent labeling under setting [7] stood at 12.8%, the percent labeling under setting [8] worked out at 10.9%, the percent labeling under setting [9] is 9.1% and the percent labeling under setting [10] came to 41.2%.

In the case of `O=C(NCC1CCCCN1C(=O)CCS)c1ccccc1` (centres undefined), the percent labeling runs as follows: under setting [1], 11.7%; under setting [2], 39.9%; under setting [3], 37.6%; under setting [4], 31.1%; under setting [5], 46.3%; under setting [6], 29%. The percent labeling reads like this: under setting [7], 20%; under setting [8], 36.5%; under setting [9], 33.4%; under setting [10], 64.3%.

As for `O=C(CCCc1ccc(F)c(F)c1)NCCS`, the percent labeling amounted to 47.3% under setting [11]; 19.4% under setting [1]; 27.3% under setting [2]; 22.6% under setting [3]; 24.1% under setting [4]; 22% under setting [5]. For the same compound, the percent labeling runs as follows: under setting [6], 36.6%; under setting [12], 37%; under setting [7], 16%; under setting [8], 25.1%; under setting [9], 20.8%; under setting [10], 36.6%.

As to `O=C(CNC(=O)Cc1ccc(O)cc1)NCCS`, the percent labeling runs as follows: under setting [11], 26.6%; under setting [1], 11.4%; under setting [2], 26.7%; under setting [3], 23%; under setting [4], 43%; under setting [5], 31.4%. Besides, the percent labeling was determined as 20.8% under setting [6]; 36.6% under setting [12]; 31.7% under setting [7]; 26.9% under setting [8]; 27.9% under setting [9]; 32.7% under setting [10].

On to `Cc1csc2nc(CC(=O)NCCS)cn12`, for which the percent labeling under setting [11] came out at 32%; the percent labeling under setting [1] came out at 14.8%; the percent labeling under setting [2] came out at 24.2%; the percent labeling under setting [3] worked out at 15.8%; the percent labeling under setting [4] is 38.3%; the percent labeling under setting [5] was 21.5%. In addition, the percent labeling is, setting by setting: under setting [6], 37.3%; under setting [12], 32.6%; under setting [7], 17.5%; under setting [8], 31%; under setting [9], 17.5%; under setting [10], 48.9%.

As for `O=C(NCCS)c1cc(Cc2ccccc2)[nH]n1`, the percent labeling was 21.8% under setting [11]; 19% under setting [1]; 16.3% under setting [2]; 14.4% under setting [3]; 26.9% under setting [4]; 25.5% under setting [5]. Besides, the percent labeling under setting [6] is 38.7%; the percent labeling under setting [12] was 35.3%; the percent labeling under setting [7] was determined as 13.2%; the percent labeling under setting [8] turned out to be 14.5%; the percent labeling under setting [9] worked out at 13.7%; the percent labeling under setting [10] was 28.7%.

For `O=C(CCS)Nc1ccccc1Oc1cccc(F)c1`, the percent labeling is, setting by setting: under setting [1], 13.4%; under setting [2], 24.6%; under setting [3], 24.7%; under setting [4], 19.1%; under setting [5], 20.5%; under setting [6], 32.7%. Besides, the percent labeling was determined as 12.7% under setting [7], 18.4% under setting [8], 14.6% under setting [9] and 33.7% under setting [10].

With `CC(C)(C)OC1CC(CC(=O)NCCS)C1(C)C` (centres undefined), the percent labeling runs as follows: under setting [11], 32.3%; under setting [1], 13%; under setting [2], 31.2%; under setting [3], 20.8%; under setting [4], 33.4%; under setting [5], 30.7%. Also, the percent labeling stood at 21.3% under setting [6]; 35.1% under setting [12]; 23.5% under setting [7]; 29.6% under setting [8]; 30.7% under setting [9]; 48.3% under setting [10].

With `O=C(CCc1nnc(C2CC2)n1-c1ccccc1)NCCS`, the percent labeling by setting is: under setting [11], 38.3%; under setting [1], 13.4%; under setting [2], 31.8%; under setting [3], 24.6%; under setting [4], 40.7%; under setting [5], 33.8%. The percent labeling is, setting by setting: under setting [6], 18.5%; under setting [12], 29.7%; under setting [7], 18%; under setting [8], 28%; under setting [9], 24%; under setting [10], 63.7%.

In the case of `COc1ccc(C(=O)NCCS)cc1-n1cnnn1`, the percent labeling under setting [11] is 25.5%; the percent labeling under setting [1] is 14.4%; the percent labeling under setting [2] came to 23.1%; the percent labeling under setting [3] was 25.5%; the percent labeling under setting [4] stood at 36%; the percent labeling under setting [5] amounted to 31.1%. In addition, the percent labeling reads like this: under setting [6], 49.6%; under setting [12], 42.7%; under setting [7], 21%; under setting [8], 23.4%; under setting [9], 25.6%; under setting [10], 37.6%.

On to `O=C(NCCS)c1cccc(NC(=O)c2ccc(Br)cc2)c1`, for which the percent labeling is, setting by setting: under setting [11], 6%; under setting [1], 0%; under setting [2], 2.2%; under setting [3], 4.9%; under setting [4], 0%; under setting [5], 0%. In addition, the percent labeling by setting is: under setting [6], 4.7%; under setting [12], 19.8%; under setting [7], 0%; under setting [8], 0%; under setting [9], 0%; under setting [10], 5.6%.

For `O=C(CCS)N1CCC2(C=Cc3ccccc3O2)CC1`, the percent labeling is, setting by setting: under setting [1], 21.1%; under setting [2], 29.9%; under setting [3], 24.1%; under setting [4], 23.8%; under setting [5], 40.4%; under setting [6], 33%. This compound also showed a percent labeling under setting [7] of 17.4%, a percent labeling under setting [8] of 24.6%, a percent labeling under setting [9] of 17% and a percent labeling under setting [10] of 37.1%.

On to `CN1CCN(Cc2ccc(NC(=O)CCS)c(F)c2)CC1`, for which the percent labeling is 18.7% under setting [1]; 41.3% under setting [2]; 50.8% under setting [3]; 33.4% under setting [4]; 49.3% under setting [5]; 44.4% under setting [6]. In addition, the percent labeling turned out to be 52.4% under setting [7], 31% under setting [8], 37.3% under setting [9] and 55.2% under setting [10].

In the case of `N#CCc1ccc(S(=O)(=O)N2CCC(C(=O)NCCS)CC2)cc1`, the percent labeling by setting is: under setting [11], 20.9%; under setting [1], 9%; under setting [2], 16.2%; under setting [3], 17.5%; under setting [4], 15%; under setting [5], 18.6%. Besides, the percent labeling was determined as 15.1% under setting [6]; 34.5% under setting [12]; 15.5% under setting [7]; 17% under setting [8]; 15.2% under setting [9]; 23.2% under setting [10].

`O=C(CCS)N1CCN(Cc2coc(-c3ccccc3)n2)CC1` came in with a percent labeling under setting [1] of 22.8%; a percent labeling under setting [2] of 33.6%; a percent labeling under setting [3] of 51.5%; a percent labeling under setting [4] of 34%; a percent labeling under setting [5] of 60%; a percent labeling under setting [6] of 26.9%. Besides, the percent labeling reads like this: under setting [7], 20.4%; under setting [8], 32.8%; under setting [9], 28.8%; under setting [10], 49.5%.

In the case of `O=C(CCS)NCCNc1ncnc2sccc12`, the percent labeling is, setting by setting: under setting [1], 21.5%; under setting [2], 34%; under setting [3], 54.3%; under setting [4], 39.3%; under setting [5], 43.3%; under setting [6], 38.5%. The percent labeling reads like this: under setting [7], 33.7%; under setting [8], 34.8%; under setting [9], 31.4%; under setting [10], 52.5%.

Turning to `O=C(NCCS)C1CCOC2(CCOCC2)C1` (centres undefined), the percent labeling is, setting by setting: under setting [11], 25.2%; under setting [1], 10.3%; under setting [2], 27.2%; under setting [3], 20.7%; under setting [4], 24.5%; under setting [5], 27.5%. Besides, the percent labeling worked out at 9.6% under setting [6]; 29.4% under setting [12]; 17.8% under setting [7]; 29.2% under setting [8]; 30.9% under setting [9]; 38.1% under setting [10].

Consider `NC(=O)c1cc(O)ccc1NC(=O)CCS`, for which the percent labeling under setting [1] stood at 17.7%; the percent labeling under setting [2] amounted to 30%; the percent labeling under setting [3] is 36.4%; the percent labeling under setting [4] is 33.8%; the percent labeling under setting [5] turned out to be 29.1%; the percent labeling under setting [6] stood at 33.6%. The percent labeling amounted to 32.7% under setting [7], 39.1% under setting [8], 40.7% under setting [9] and 43.6% under setting [10].

For `Cc1cc(COc2ccc(C(=O)NCCS)cc2Br)no1`, the percent labeling worked out at 29.5% under setting [11]; 11.5% under setting [1]; 8.3% under setting [2]; 3.5% under setting [3]; 9.4% under setting [4]; 4.3% under setting [5]. Besides, the percent labeling by setting is: under setting [6], 19.1%; under setting [12], 16.7%; under setting [7], 0%; under setting [8], 5.9%; under setting [9], 4.2%; under setting [10], 7.3%.

In the case of `CN(Cc1cnn(Cc2ccccc2)c1)C(=O)CCS`, the percent labeling runs as follows: under setting [1], 13.6%; under setting [2], 39.3%; under setting [3], 40.3%; under setting [4], 37.7%; under setting [5], 53.7%; under setting [6], 37.8%. Moreover, the percent labeling is, setting by setting: under setting [7], 22.2%; under setting [8], 35.9%; under setting [9], 37.5%; under setting [10], 60.8%.

`O=C(NCCS)c1nc2n(c1Cl)CCCC2` had a percent labeling under setting [11] of 42.3%; a percent labeling under setting [1] of 23.9%; a percent labeling under setting [2] of 34.8%; a percent labeling under setting [3] of 23.7%; a percent labeling under setting [4] of 41%; a percent labeling under setting [5] of 39.7%. The percent labeling runs as follows: under setting [6], 64.7%; under setting [12], 39.9%; under setting [7], 29%; under setting [8], 30.1%; under setting [9], 30.4%; under setting [10], 49.5%.

As for `Cn1nc(C2CCCN(C(=O)CCS)C2)nc1N` (centres undefined), the percent labeling runs as follows: under setting [1], 9%; under setting [2], 25.6%; under setting [3], 30.3%; under setting [4], 31.2%; under setting [5], 33.7%; under setting [6], 13.4%. Moreover, the percent labeling is 13.3% under setting [7], 27.4% under setting [8], 33.8% under setting [9] and 49.6% under setting [10].

`O=C(CCS)N1CCSc2c([nH]c3ccccc23)C1`: the percent labeling reads like this: under setting [1], 13.8%; under setting [2], 22.7%; under setting [3], 27%; under setting [4], 23.7%; under setting [5], 33%; under setting [6], 25.8%. The percent labeling reads like this: under setting [7], 20.7%; under setting [8], 22.7%; under setting [9], 14.7%; under setting [10], 27.7%.
